Source: the BET-seq Pho4 binding data (Le et al. 2018)
Some of the results follow. These are noisy estimates, calculated here from bound and input reads.

Target: T1, Pho4 (S. cerevisiae) (UniProt P07270)
T1 sequence: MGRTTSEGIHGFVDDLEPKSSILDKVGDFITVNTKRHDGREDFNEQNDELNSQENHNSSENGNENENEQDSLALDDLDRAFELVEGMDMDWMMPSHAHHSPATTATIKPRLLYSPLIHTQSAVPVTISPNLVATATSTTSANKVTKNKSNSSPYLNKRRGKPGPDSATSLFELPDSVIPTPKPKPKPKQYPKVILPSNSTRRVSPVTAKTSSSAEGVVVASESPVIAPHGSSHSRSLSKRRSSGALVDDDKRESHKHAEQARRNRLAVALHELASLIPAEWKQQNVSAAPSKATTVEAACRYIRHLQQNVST
Assay: relative binding free energy (BET-seq); higher = weaker binding
Conditions: reference: library average

Sequence	relative binding free energy [kcal/mol]
ATATACACGTGTGTTT	-0.06
AACGTCACGTGTCGGG	0.11
TGGGACACGTGGGCAA	-0.01
ATCTGCACGTGGTGGC	-0.01
TTGAGCACGTGGGGAG	-0.13
GTTGCCACGTGCAGGT	0
TCTCTCACGTGTAGTT	0.22
TATTCCACGTGGTAGG	-0.08
TTGCTCACGTGAGCGT	0.3
TGTTACACGTGCGGAT	0.05
GTTAGCACGTGTATTT	0.04
ATGTGCACGTGCATGA	-0.09
AGTGTCACGTGCTTAG	-0.1
GTCGTCACGTGGTAAG	0.01
AAGGACACGTGTTGGT	0.03
GTGGCCACGTGGGTGA	-0.08
GAGTGCACGTGGTAGT	0.06
GGGATCACGTGGTGCA	0.15
ATGTACACGTGTTAGA	0.12
AGGGGCACGTGCGTAA	-0.26
CAGGTCACGTGGGCGG	0
AGTTGCACGTGATAAT	0.09
GACGTCACGTGAGAGG	0.48

Sequence	relative binding free energy [kcal/mol]
TCGCGCACGTGGAGGG	-0.28
AGGGACACGTGGCATG	-0.13
TTGAGCACGTGGGCTT	-0.18
TAGGTCACGTGTTAAA	0.2
CGGCTCACGTGTGGGC	0.14
TTTTACACGTGGTAAT	0.1
TGGAGCACGTGGAGGC	-0.15
TGGTTCACGTGTAGGG	0.31
TGCGTCACGTGTGGTT	0.16
CTTGGCACGTGTTGGC	-0.11
GGATTCACGTGCCGGG	0.23
GCGTTCACGTGATTTG	0.17
TGCGGCACGTGCAGGA	0.03
CTTGTCACGTGAAGTG	0.11
CTAGGCACGTGGGGAA	-0.14
AGAGGCACGTGTGATG	-0.05
AAATGCACGTGTGGCG	0.01
TTGGTCACGTGTATGG	0.12
TAGGACACGTGGTTTG	-0.01
CGGGGCACGTGTTTTG	-0.18
TGGTTCACGTGAAGGG	0.39
CGTAGCACGTGGGAGT	-0.18
ATTGTCACGTGTTCTA	0.12

Sequence	relative binding free energy [kcal/mol]
TTTGGCACGTGAGGTG	0.22
AAACGCACGTGTGGTT	0.03
TGTATCACGTGAGAAA	0.45
GGTTCCACGTGTGTTG	0.06
TTAAACACGTGCGGTT	-0.01
CAAAGCACGTGGTGTG	-0.1
AGGTGCACGTGTGTTG	-0.03
TGTGCCACGTGGGGCT	-0.19
CGTGGCACGTGGCTTG	-0.18
TTGATCACGTGTCTTA	0.09
GGAATCACGTGAGGGC	0.21
GAGTGCACGTGGGTGA	-0.08
AGTGGCACGTGTTATA	-0.02
GATTCCACGTGATGTG	0.43
TAATACACGTGTATGT	0.04
ATGGCCACGTGGCTTG	-0.16
TACGTCACGTGCAGTT	0.17
TGGAACACGTGGTGGA	-0.03
GTTACCACGTGTTGAT	0.06
CTGTGCACGTGTTCGG	0.06
AGAGGCACGTGGAAGG	-0.09
ATTATCACGTGGGCGC	0.03
TACTTCACGTGTTTGT	0.15

Sequence	relative binding free energy [kcal/mol]
AGTTGCACGTGCAGTG	0.16
TATAGCACGTGTTAGT	0
AGGAGCACGTGGTGCT	-0.12
GATTCCACGTGGGTAT	0.04
ATAGGCACGTGGAGTT	-0.16
TGTGTCACGTGGTGGT	0.05
GAAGGCACGTGTGGTC	0
ATTCTCACGTGGTGGA	0.23
GGCATCACGTGTCGGT	0.2
TGCTTCACGTGGGCTT	0.15
TACGACACGTGCGGGG	0.02
GGTTCCACGTGGTCTG	-0.06
CGCGGCACGTGTGGGT	-0.16
TAGAGCACGTGTTAGT	-0.05
GAAATCACGTGGCGTG	0.08
GTGGGCACGTGGAGGA	-0.14
TGGATCACGTGTGATC	0.28
GATACCACGTGTGTGT	-0.01
GGTAGCACGTGTGGTA	0.06
GTTGACACGTGAATAT	0.2
GGCGGCACGTGTTAGT	-0.1
TAGGTCACGTGCAGTG	0.02
GGAGGCACGTGGTGTT	-0.07

Sequence	relative binding free energy [kcal/mol]
TCATGCACGTGATTGG	0.16
AGTGGCACGTGCAGAT	-0.15
AGTTCCACGTGATTGG	0.31
GGTTTCACGTGTCGCA	0.37
GTTGGCACGTGATAAA	0.03
CGGGTCACGTGTACTT	0.23
GGATGCACGTGCAGTG	-0.05
GTGGTCACGTGAAATA	0.28
GATGGCACGTGGGGTG	-0.12
GCGGACACGTGGGGTG	-0.03
GTATGCACGTGGTTTA	-0.04
TATCGCACGTGGTATT	-0.1
GGAGTCACGTGGGAAA	0.08
TGAGGCACGTGTACAG	0
ACTGACACGTGGAGGG	-0.06
GCATGCACGTGGGGGC	-0.06
TGACTCACGTGATTGT	0.13
TTTGTCACGTGACGGC	0.24
TAATTCACGTGTTTTT	0.23
CTTGGCACGTGGTGCT	-0.11
AGTTGCACGTGTGAAT	0.11
GAGGTCACGTGGCTTG	0.05
AGGCACACGTGGGTCG	-0.09
